The record followed here is the supplement of paper PMC10338343.

± gives the standard deviation. Over roughly 6,600 sequences, “pre-steady-state target cleavage rate” has its median near 0.07; the highest 2% begin near 0.72. The list shows a part of the results, in another mix than the full data. A value given as a limit tells only on which side of the number the result lay.

For this test, the system named is MIWI (PIWIL1) piRISC loaded with Kctd7 piRNA (30 nt). Put plainly: pre-steady-state target cleavage rate (min^-1); MIWI and MILI are mouse PIWI proteins and EfPiwi is from a freshwater sponge; tags in brackets are library labels; higher = faster piRNA-guided slicing of the target. Particulars: guide: Kctd7 piRNA 5'p-UGUUAAUCUCUCAGAGAAGGUGACAGUGAU; auxiliary factor: 500 nM mouse GTSF1. An outline of the steps:
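A transcribed, DNA-blocked target RNA library (0.1 nM) and 1 nM active affinity-purified piRISC bearing one synthetic guide were incubated in HEPES–potassium acetate buffer at 33 °C for 0–8 or 0–960 min, either with or without 500 nM GTSF1 partner protein. Uncleaved targets were sequenced, normalised to depth and to weakly complementary targets, and pooled over three trials, with k3 capped at 0.0001 min^-1. The pre-steady-state cleavage rate was derived with a burst-and-steady-state fit.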
With UAGUGAGUCACCUUCAGUGAGAGAUUAAGA, the “pre-steady-state target cleavage rate” value was 0.0217 ± 0.0064. The same measure for AUCACUGUGACCUUCUCUGAGACAUUAACA: 0.106 ± 0.01.

As for UAGUGAGAGACCUUCUCUGAGAGAUUAAGA, the “pre-steady-state target cleavage rate” value was determined as 0.105 ± 0.021. In the case of UAGUGACACUCCUUCUCUGAGAGAAUAACA, the “pre-steady-state target cleavage rate” value stood at 0.032 ± 0.0072. The same measure for UAGUGACAGUGCUUCUCUGAGAUAUUAACA: 0.00339 ± 0.0022; for UUCACUGUGACCUUCUCUGAGAGUUUAACA: 0.34 ± 0.048; for AUCACUGUCACCAUCUGUGAGAGAUUAACA: 0.469 ± 0.03.

On to UACACUGUCAGCUUCUCUGAGAGAUUAAGA, for which the “pre-steady-state target cleavage rate” value came out at 0.0986 ± 0.015. For UAGACUGUCACCUUCACUCAGAGAUUAACA, the “pre-steady-state target cleavage rate” value was determined as 0.027 ± 0.005.

On to AUCACUGUCACGUUCUCUGAGAGAUUUUGA, for which the “pre-steady-state target cleavage rate” value came out at 0.00793 ± 0.0038. As for UAGUGACAGACCUUGUCUGAGACAUUAACA, the “pre-steady-state target cleavage rate” value turned out to be 0.0361 ± 0.0097. With UAGUCUGUCACCUUCUCUGAGAGAGUAACA, the “pre-steady-state target cleavage rate” value is 0.376 ± 0.044. As for UAGUGUGACACCUUCUCUCAGAGAUUAACA, the “pre-steady-state target cleavage rate” value came to 0.0516 ± 0.0075. As for UAGUGUGUCACCUUCUCUGAGAGAUAAAGA, the “pre-steady-state target cleavage rate” value came to 0.0553 ± 0.016. Take UACACUGUCACCUUCUCUGAGAGAUAUUCA: the “pre-steady-state target cleavage rate” value stood at 0.218 ± 0.059. The same measure for UAGUGAGUCACCUUCUCUGUGAGAUUUACA: 0.115 ± 0.013; for UAGUGACUCACCUUUUCUGAGAGAUUAACA: 0.367 ± 0.023. The same measure for UAGUGAGUCACCUUCUGAGAGAGAUUAACA: 0.0589 ± 0.0085; for UACACUGUCACCUAGUCUGAGAGAUAUUGA: 0.0101 ± 0.0069; for AUCACUGUCUGGUUCUCUGAGAGAUUAACA: 0.228 ± 0.022.

UACACUCUCACCUUCUCAGAGAGAUUAACA: the “pre-steady-state target cleavage rate” value was determined as 0.336 ± 0.028. Turning to UAGAGUGUCACCUUCUCUGAGAGAUUAUCA, the “pre-steady-state target cleavage rate” value stood at 0.384 ± 0.048.

UAGUGACUCACCUUCUCAGUGAGAUUAACA: the “pre-steady-state target cleavage rate” value was determined as 0.00575 ± 0.0028. As to UAGUGACUCACCCUUCUCUGAGAGAUUAACA, the “pre-steady-state target cleavage rate” value came out at 0.0457 ± 0.0096. Consider UUCACUGUCACCUCCUCUGAGAGAUUAACA, for which the “pre-steady-state target cleavage rate” value is 0.639 ± 0.021.

Turning to UACACUGUCACCUUCUGUGAGUGAUUAACA, the “pre-steady-state target cleavage rate” value was 0.0201 ± 0.0064.

Take UUGACUGUCACCUUCUGUGAGAGAUUAACA: the “pre-steady-state target cleavage rate” value was 0.644 ± 0.029. In the case of UAGUGACAGACCUUCUCAGAGAGAUAAACA, the “pre-steady-state target cleavage rate” value turned out to be 0.00664 ± 0.0036. In the case of UAGUGAGUCACCUUCUGUGAGUGAUUAACA, the “pre-steady-state target cleavage rate” value was 0.0122 ± 0.004. Regarding UAGUGACAGUGCUAUCUCUGAGAGAUUAACA, the “pre-steady-state target cleavage rate” value amounted to 0.00554 ± 0.0021. As for AUCACUGUGACCAUCUCUGAGAGAUUAACA, the “pre-steady-state target cleavage rate” value is 0.664 ± 0.04. Turning to UAGUGACAGACCUUCUCUGACAGUUUAACA, the “pre-steady-state target cleavage rate” value came to 0.00504 ± 0.0029. The same measure for AUCACUGUCACCUUCUCUGAGUCUUUAACA: 0.00738 ± 0.0043; for UAGUGACUCACCUUCUGUGAGAGAUUAAGA: 0.088 ± 0.02; for UAGUGAGACACCUUCACUGAGAGAUUAACA: 0.324 ± 0.025. Consider UAGUGAGGCACCUUCUCUGAGAGAUUAACA, for which the “pre-steady-state target cleavage rate” value worked out at 0.433 ± 0.08.

Take UAGUGUGUCAGCUUCUCUGAGAGUUUAACA: the “pre-steady-state target cleavage rate” value came to 0.291 ± 0.036. With UACACUGUGACCUUCUCUGAGAGAAUAACA the figure was 0.126 ± 0.024.

As for UACUCUGUCACCUUCUCUGAGAGAUUAACA, the “pre-steady-state target cleavage rate” value was 0.663 ± 0.03.

With UAGUCUGUCACAUUCUCUGAGAGAUUAACA, the “pre-steady-state target cleavage rate” value was determined as 0.607 ± 0.03. Regarding UAGACUGUCACCUUCUCUGAGACAAUAACA, the “pre-steady-state target cleavage rate” value was found to be 0.00274 ± 0.0022.

With UAGUGACACACCUUCUCUGAGAGAUAUAACA, the “pre-steady-state target cleavage rate” value was 0.119 ± 0.016. The same measure for AUCACUGUCACCUUACUCUGAGAGAUUAACA: 0.592 ± 0.034; for UAGUGAGUCACCUUUUCUGAGAGAUUAACA: 0.492 ± 0.025; for UAGUGACAGUGGAAGACUGAGACGAUUAACA: less than 0.0001. For UACACUGUCUGCUUCUCUGAGAGAUAUUGA, the “pre-steady-state target cleavage rate” value was found to be 0.00442 ± 0.0031. As to AUGUGUGUCACCUUCUCUGAGAGAUUAACA, the “pre-steady-state target cleavage rate” value worked out at 0.466 ± 0.023.

With UACAGCUGUCACCUUCUCUGAGAGAUUAACA, the “pre-steady-state target cleavage rate” value came out at 0.749 ± 0.036. For the sequence UAGUGACACACCUUGUCUGUGAGAUUAACA, the “pre-steady-state target cleavage rate” value was found to be 0.0639 ± 0.0061.

Regarding UACUACUGUCACCUUCUCUGAGAGAUUAACA, the “pre-steady-state target cleavage rate” value stood at 0.694 ± 0.032. Take UUCACUGUCACCUACUCUGAGAGAUUAAGA: the “pre-steady-state target cleavage rate” value was found to be 0.17 ± 0.029. Take UAGUGACACAGCUUCUCUCAGAGAUUAACA: the “pre-steady-state target cleavage rate” value came to 0.0115 ± 0.0034. With AUCACUGUCACGUUGUCUGAGAGAUUAACA the figure was 0.326 ± 0.017; with AUCACUGUCACCUUGACUGAGAGAUUAAGA, 0.352 ± 0.087; with UAGUGUGUCACCUUCUCUGAGAGAAUAUCA, 0.0617 ± 0.019. As for UAGUGUGUCACCUUCACUGAGAGAAUAACA, the “pre-steady-state target cleavage rate” value worked out at 0.0545 ± 0.011. On to UAGUGUGUCACCUUCUCUGACAGAUUUACA, for which the “pre-steady-state target cleavage rate” value amounted to 0.224 ± 0.066. As for AUCACUCACACCUUCUCUGAGAGAUUAUGA, the “pre-steady-state target cleavage rate” value worked out at 0.0681 ± 0.016.

As for UAGUGUGACACCAUCUCUGAGAGAUUAACA, the “pre-steady-state target cleavage rate” value worked out at 0.416 ± 0.028. AUCACUGUCACCUCUCUGAGAGAUUAACA: the “pre-steady-state target cleavage rate” value came out at 0.587 ± 0.041.

Turning to UACAGUGUCACCUUCUCUGAGAGAUUUACA, the “pre-steady-state target cleavage rate” value amounted to 0.321 ± 0.04. For the sequence “UUCACUGUCACCUUCUCUGAGAGAUUAACC [g2:g29:cont:t1C]”, the “pre-steady-state target cleavage rate” value worked out at 0.414 ± 0.025.

Regarding UAGUGUGUCACCUUCUCUGAGAGAUUAAGCA, the “pre-steady-state target cleavage rate” value was 0.176 ± 0.022. The same measure for UAGUGACAGUGCUUCUCUGAGAGAGUAACA: 0.00669 ± 0.0015; for UAGUGAGUCUCCAUCUCUGAGAGAUUAACA: 0.196 ± 0.021; for UAGUGUGUCUCCUUCUCUGAGAGAUUAACA: 0.291 ± 0.03. Turning to UAGUGUCUCACCUUCUGUGAGAGAUUAACA, the “pre-steady-state target cleavage rate” value amounted to 0.323 ± 0.022. With UACGACUGUCACCUUCUCUGAGAGAUUAACA the figure was 0.746 ± 0.07; with UAGUGUGUCACCUACUCUGAGAGAAUAACA, 0.219 ± 0.044; with UAGUCUGUCACCUUCUCUGAGAGUUUAUCA, 0.191 ± 0.035.

Regarding AUCACUGUCACCUUCUCUGAGAGAUAAAGA, the “pre-steady-state target cleavage rate” value is 0.0799 ± 0.019. Regarding UAGUCGUGUCACCUUCUCUGAGAGAUUAACA, the “pre-steady-state target cleavage rate” value came out at 0.712 ± 0.039.
